Drawing on publication PMC12136788, this text covers binding signal for 22 molecules.

This is one part of the list.

T1: UNK ZnF1-6 (called full-length) (human, UniProt Q9C0B0 30-357)
T1 sequence: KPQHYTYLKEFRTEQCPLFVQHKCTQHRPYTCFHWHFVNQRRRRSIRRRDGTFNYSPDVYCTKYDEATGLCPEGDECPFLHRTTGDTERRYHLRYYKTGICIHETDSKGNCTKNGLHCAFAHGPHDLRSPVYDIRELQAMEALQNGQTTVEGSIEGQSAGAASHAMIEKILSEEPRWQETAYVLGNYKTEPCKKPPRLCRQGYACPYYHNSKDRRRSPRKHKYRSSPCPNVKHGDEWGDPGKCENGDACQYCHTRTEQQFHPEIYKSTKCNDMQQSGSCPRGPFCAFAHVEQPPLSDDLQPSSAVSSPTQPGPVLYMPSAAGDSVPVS

B1: chr11:69651696:69651723:+|3pUTR|ENSG00000110092|msi1_unk|total|mutant (ssRNA)
RNA: GGGAGUUCUACAGUCCGACGAUCGAGGAUCCGGUUCCAUCCUUUACGUGUUUAAAAAAAAGCAUAAAAACAUUUUAAAAACACCGAAAAAUUCAGCAAACCAUUUUUAAAGCCGAAGAGGGUUUCCGGCCGAAAAACAUAUUCCAACAGAGGAUUGAGCAUCA
B2: chrX:18604022:18604123:+|CDS|ENSG00000008086|msi1|total|mutant (ssRNA)
RNA: GGGAGUUCUACAGUCCGACGAUCGACGAAGGUCUCCCUGCCAAUGAAAGCUUCCUAAAUGGAAACCUUGCUGGAGCCCGUCUCCGUCCACUGCACACCAAAACCUACCAAGCAAGCAGCCAGCCUGGGUCUACCAGCAAAGAUCAACAGAGGAUUGAGCAUCA
B3: chr16:48080881:48083801:-|three_prime_utr|ENSG00000140798|control|control|control (ssRNA)
RNA: GGGAGUUCUACAGUCCGACGAUCUGAGUUUGACAAGCCUGAAGUCCUUGCAGAGAAGCCAGAUUCUGCAUUUGCGAUGUUACUAGCAGCAGAAGUCAGAUUGUAGAGGUCCUGGCGGCUGAUUCUAGAGGAGGAAGAGGCUCUCAACAGAGGAUUGAGCAUCA
B4: chr10:91630394:91630495:-|CDS|ENSG00000119938|unk|total|mutant (ssRNA)
RNA: GGGAGUUCUACAGUCCGACGAUCCUUGGACCUUAAUGAUAUCUCCUCUGCCUUAAAACACCACGAGGAGAAAAACUUGAUUUCCGAUUUCCCUCAGCCUUCAACCGAUUACUUAAGUUUCCGGAGCCACUUUCAGAAGAACUUCAACAGAGGAUUGAGCAUCA
B5: chr1:52238154:52238269:+|CDS|ENSG00000157077|unk|total|mutant (ssRNA)
RNA: GGGAGUUCUACAGUCCGACGAUCUCUGACCGUCCCGCCAGUGUCUGUUCCCCUUCACAAUUAAAGGAUGACGGAAGUACCGGCCGAGACCCCUCCAUGUCUGCGAUUACAAGUUUAACGGUUGAUUCAGUAAUCUCAUCCCAGCAACAGAGGAUUGAGCAUCA
B6: chr2:205797254:205797461:+|3pUTR|ENSG00000118257|msi1|FALSE|unique (ssRNA)
RNA: GGGAGUUCUACAGUCCGACGAUCUCACCCUCCCAUGAUGCGCAGUGUUCAGAAAGCUGGUAAGUCCUAGGGAUUUCCAGAAGUAGCCUGCAGAAGAAGGUAAGUUUGAAAGCCACUCCAGGGGUCCUGAUGCUGUCAUGCUCACAACAGAGGAUUGAGCAUCA
B7: chr4:110049619:110049852:-|3pUTR|ENSG00000170522|msi1|FALSE|unique (ssRNA)
RNA: GGGAGUUCUACAGUCCGACGAUCUUGUUCAAUGUGACAUAAUAGUAUUAUAAUUGGUUAAGUAGCUUAAUGAUUAGGCAAACUAGAUGAAAAGAUUAGGGGCUUCCACACUGCAUAGAUUACACGCACAUAGCCACGCAUACACAACAGAGGAUUGAGCAUCA
B8: ENSG00000075624:stop:overlap|stop_codon|ENSG00000075624|stop_codon|NA|stop_codon (ssRNA)
RNA: GGGAGUUCUACAGUCCGACGAUCGGAUCAGCAAGCAGGAGUAUGACGAGUCCGGCCCCUCCAUCGUCCACCGCAAAUGCUUCUAGGCGGACUAUGACUUAGAUUUAAAAACUGGAACGGUGAAGGUGACAGCAGUCGGUUGGACAACAGAGGAUUGAGCAUCA
B9: chr2:236324146:236324783:-|three_prime_utr|ENSG00000132321|control|control|control (ssRNA)
RNA: GGGAGUUCUACAGUCCGACGAUCACUCGCCAAAGAAAAGAUUCACCAUUGCCCGCCUGAAGAAGCCCUCAGGGGAAGGAACUUAGCAGUGUGCAGGUGAGCUGAUGCCGCAAACCCGCUAACCACUGCAUGUGCUGUUAUGCCCAACAGAGGAUUGAGCAUCA
B10: chr11:35619468:35619569:+|CDS|ENSG00000179431|unk|total|mutant (ssRNA)
RNA: GGGAGUUCUACAGUCCGACGAUCCCCCCUCCGGGAUGCCGGGGGUGAGCUGGCCAACCUCAGCCAGGCGGAGCUGGUGGACCCCGUACAAUGGACCGACUUAAUCCUUUUCGACUACCUGACGGCCAACUUCGACCGGCUCGUCAACAGAGGAUUGAGCAUCA
B11: chr5:136063637:136063821:+|3pUTR|ENSG00000120708|msi1|FALSE|unique (ssRNA)
RNA: GGGAGUUCUACAGUCCGACGAUCUGUCAAAUGUGUCUCACAUCUACACGUGGCUUGGAGGCUUUUAUGGGGCCCUGUCCAGGUAGAAAAGAAAUGGUAUGUAGAGCUUAGAUUUCCCUAUUGUGACAGAGCCAUGGUGUGUUUCAACAGAGGAUUGAGCAUCA
B12: chr1:965281:965395:+|3pUTR|ENSG00000187961|unk|FALSE|unique (ssRNA)
RNA: GGGAGUUCUACAGUCCGACGAUCCCAUCCGUUCACGUCUCUGCAUCCAUUCCUUCAUGUCUUUAUUUAGUUGUUUAUUUAUUUAGUUAUUUAUCUUAUUUAUUGAGGGGUGAGGAGUGCCACGGCUGCCCGUUUACACCUUUACAACAGAGGAUUGAGCAUCA
B13: chr10:52765379:52768136:-|three_prime_utr|ENSG00000165471|control|control|control (ssRNA)
RNA: GGGAGUUCUACAGUCCGACGAUCUUGUUCCUUUUGUGGGCAAUCACUAAAAAUGAUCACUAACAGCACCAACAAAGCAAUAAUAGUAGUAGUAGUAGUUAGCAGCAGCAGUAGUAGUCAUGCUAAUUAUAUAAUAUUUUUAAUCAACAGAGGAUUGAGCAUCA
B14: chr10:98383567:98383797:-|three_prime_utr|ENSG00000119943|control|control|control (ssRNA)
RNA: GGGAGUUCUACAGUCCGACGAUCCCACCCCUGAAUUCCAAGUGCUCCAUUGGAUCAGCUUCCCAGGAAGUUCAGCUUCGGGUUAGUACAUAAGGCCACCACAAUGCUCAAGAAAUUAUUUUAGAAAAAACGUACGAGUUACAUCAACAGAGGAUUGAGCAUCA
B15: ENSG00000124766:be:win_251|CDS|ENSG00000124766|bound_else_gene|NA|bound_elsewhere_windowed (ssRNA)
RNA: GGGAGUUCUACAGUCCGACGAUCUGCACAACGCCGAGAUCUCCAAGCGGCUGGGCAAACGCUGGAAGCUGCUCAAAGACAGCGACAAGAUCCCUUUCAUUCGAGAGGCGGAGCGGCUGCGCCUCAAGCACAUGGCUGACUACCCAACAGAGGAUUGAGCAUCA
B16: chr10:73916565:73916770:+|3pUTR|ENSG00000122861|msi1|total|mutant (ssRNA)
RNA: GGGAGUUCUACAGUCCGACGAUCCUGGUUGUCAUUUUUGCAGCCGAGUCAUCUCCAUCAGCUGUAAGAAGAGACUGGGAAGACCGGCUCUGCACAGAUGGAUUUGCCUGUGCCACCCACCAGGGCGAACGACAACCGCUUUACCAACAGAGGAUUGAGCAUCA
B17: chr4:75800632:75800752:+|CDS|ENSG00000138768|unk|FALSE|unique (ssRNA)
RNA: GGGAGUUCUACAGUCCGACGAUCAAACAACUGAUUGAGAAGAGGAUUGGCAAAGAGAAUUUCAUAGAGAAACUAGGAUUUAUUAGCAAACAUGAGUUGUAUUCCAGAGCAUCUCAGAAACCCCAGCCAAACUUUCCCAGUCCACAACAGAGGAUUGAGCAUCA
B18: ENSG00000061794:stop:overlap|stop_codon|ENSG00000061794|stop_codon|NA|stop_codon (ssRNA)
RNA: GGGAGUUCUACAGUCCGACGAUCUCUCCACUGCCGUCUACUCGGCCACUCCGGUCCCGACACCUAGCCUGCGCACUACCUCCUAGGACAGAGAAAAUGGCUGUUGACCAGGACUGGCCUAGUGUUUACCCAGUUGCAGCACCACAACAGAGGAUUGAGCAUCA
B19: chr20:4853394:4853498:-|3pUTR|ENSG00000089057|unk|FALSE|unique (ssRNA)
RNA: GGGAGUUCUACAGUCCGACGAUCUAUGACCAUGAGCUAAGUUGUUAUUUCUUUCAUUCAUAUCCCUGCUGAAAUAUUGGUACUAGCAACUUAAAGUUGGCAAGUCUCAUCUUCAGUAAUACGGAUGCCAUGGGAGUGGCCAGGCAACAGAGGAUUGAGCAUCA
B20: chr20:50584425:50584526:+|3pUTR|ENSG00000196396|msi1|FALSE|unique (ssRNA)
RNA: GGGAGUUCUACAGUCCGACGAUCACCUCCUAUCCUUGGAGAGCAGCUGGCUCUCCACCUUGUUACACAUUAUGUUAGAGAGGUAGCGAGCUGCUCUGCUAUAUGCCUUAAGCCAAUAUUUACUCAUCAGGUCAUUAUUUUUUACAACAGAGGAUUGAGCAUCA
B21: chr7:137227872:137228000:-|3pUTR|ENSG00000105894|msi1_unk|FALSE|overlapping (ssRNA)
RNA: GGGAGUUCUACAGUCCGACGAUCGGAACAUAAAAAGGACAUCAGCAAACAGGAUCAGUUAACUAUUGCAUUUAUAUGUACCGUAGGCUUUGUAUUCAAAAAUUAUCUAUAGCUAAGUACACAAUAAGCAAAAACAAAAAGAAACAACAGAGGAUUGAGCAUCA
B22: ENSG00000070961:be:win_4401|3pUTR|ENSG00000070961|bound_else_gene|NA|bound_elsewhere_windowed (ssRNA)
RNA: GGGAGUUCUACAGUCCGACGAUCGUUAUGACAUCUGUCCUAAUUAGUUUCUUAAAUACAUUUACUACUUAAUGGUUUUGAAGCAACUGUUUAAUUUUUAAAAUUUUUGAAAACUUGCUAAUAACCUUUUGUUCAGAAUUUAGUCAACAGAGGAUUGAGCAUCA

The target of the test is T1, UNK ZnF1-6 (called full-length). Kind of test: nsRBNS (natural sequence RNA bind-n-seq); RBNS binding buffer (assumed for nsRBNS): 25 mM Tris pH 7.5, 150 mM KCl, 3 mM MgCl2, 0.01% Triton X-100, 500 ug/ml BSA, 20 U/ml SUPERase-In, 4 C; UNK is unkempt and MSI1 is Musashi-1; names of the RNAs are library labels; protein concentration not given here; high values mean tight binding.
Turning to B1, the binding signal was determined as 0.444 enrichment R.
Consider B2, for which the binding signal worked out at 0.772 enrichment R.
Regarding B3, the binding signal turned out to be 1.15 enrichment R.
As to B4, the binding signal is 0.273 enrichment R.
For B5 the value was 0.482 enrichment R.
Turning to B6, the binding signal turned out to be 0.598 enrichment R.
Consider B7, for which the binding signal was determined as 14.6 enrichment R.
B8 returned a binding signal of 1.25 enrichment R.
Turning to B9, the binding signal came out at 0.482 enrichment R.
As for B10, the binding signal worked out at 0.542 enrichment R.
The molecule B11 gave a binding signal of 0.987 enrichment R.
For B12 the value was 199 enrichment R; for B13, 16.5 enrichment R; for B14, 2.25 enrichment R.
B15 returned a binding signal of 0.596 enrichment R.
For B16, the binding signal amounted to 0.561 enrichment R.
For B17 the value was 8.68 enrichment R; for B18, 0.83 enrichment R.
Regarding B19, the binding signal turned out to be 0.439 enrichment R.
Molecule B20 yielded a binding signal of 0.916 enrichment R.
In the case of B21, the binding signal was 0.791 enrichment R.
B22 returned a binding signal of 5.85 enrichment R.
